Test results as given in PubChem BioAssay (NCI).
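Results reflect a 48-hour exposure of cells in 96-well plates to compound at five concentrations. GI50 marks 50% less growth.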 Some entries of the source have several records that differ or are many. The list is limited to them. The source may hold further records. Values that stand side by side are repeated measurements (runs, samples, wells, individuals or studies). A tag in brackets gives the origin of a value. Letters count within one entry.

Test system: MDA-MB-468 breast
Assay: DTP human tumour cell line panel, 48 h

With `COc1cccc(-c2cc(=O)c3cc(N(C)C)ccc3[nH]2)c1` the GI50 was 2.04 µM [sample A, 1 test] and 192 nM [sample B, 1 test].
